Measured values: PubChem BioAssay AID588342 (National Center for Advancing Translational Sciences (NCATS), 2011)
Among all 360,000 compounds or so, about 25,000 (6.9%) were called active. The inconclusive results got no clear call from the source; some entries with a clear call stand among them for comparison. Calls come from the whole dose curve; as a rule, active = well fitted inhibition curve with a large enough effect; inconclusive = small, poorly fitted or top-dose-only effect; inactive = flat fitted curve, though single readings scatter. Potencies of inconclusive entries are doubtful fits and often do not repeat.
Note: nearly all actives have a fitted effect of over 55% in size.
Potency is the fitted concentration of half-maximal effect; tags give direction and shape of the fitted curve.

Each compound was assayed against Luciferin 4-monooxygenase (Photinus pyralis) (UniProt P08659) (assay: qHTS profiling assay for firefly luciferase inhibitor/activator using purifed enzyme and Km concentrations of substrates (counterscreen for miR-21 project)). Conditions: purified FLuc, luminescence inhibition; series mostly up to 57.5 µM.
Chain of UniProt P08659 (P08659 whole entry, looked up): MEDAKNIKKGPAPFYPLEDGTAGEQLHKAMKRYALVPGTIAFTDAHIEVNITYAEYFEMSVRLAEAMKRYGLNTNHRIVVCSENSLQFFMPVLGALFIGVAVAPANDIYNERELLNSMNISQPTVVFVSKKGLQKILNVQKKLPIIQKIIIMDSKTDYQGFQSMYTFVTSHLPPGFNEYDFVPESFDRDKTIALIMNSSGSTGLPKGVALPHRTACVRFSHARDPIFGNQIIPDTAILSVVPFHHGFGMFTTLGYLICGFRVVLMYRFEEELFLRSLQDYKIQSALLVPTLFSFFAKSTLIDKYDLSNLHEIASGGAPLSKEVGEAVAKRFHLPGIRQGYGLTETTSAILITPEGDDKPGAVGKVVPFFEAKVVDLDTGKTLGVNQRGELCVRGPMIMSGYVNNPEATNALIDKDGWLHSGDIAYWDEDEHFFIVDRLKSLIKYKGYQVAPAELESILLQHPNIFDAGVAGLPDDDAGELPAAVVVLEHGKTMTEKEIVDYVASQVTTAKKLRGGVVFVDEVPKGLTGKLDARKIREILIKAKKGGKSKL
Summary of the method: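 Purified P. pyralis luciferase, 10 nM final, with Km-level 10 uM D-luciferin and 10 uM ATP in 50 mM Tris acetate pH 7.5, 10 mM Mg acetate, 0.01% Tween-20, 0.05% BSA; 6-point qHTS titration about 60 µM downward; luminescence read.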
With `COc1ccc(C2Nc3cccc4cccc(c34)N2)cc1` the Potency was inconclusive: 26.9 µM [inhibitor, single point].
In the case of `COc1cc(C(=S)N2CCCC2)cc(Cl)c1OCC(=O)Nc1ccc(C)cc1C`, the Potency is reported as inconclusive: 26.9 µM [inhibitor, partial curve, poor fit].
`Cc1nnc2sc(SCC(=O)Nc3nccs3)nn2c1=O` was tested, and the Potency was “inactive”.
With `CN1CCN(c2nnc(-c3ccc(Cl)cc3)c3ccccc23)CC1` the Potency was inconclusive: 26.9 µM [inhibitor, single point].
With `O=C(N/N=C/c1ccncc1)c1cc(-c2ccc(Br)s2)[nH]n1` the Potency was active: 15.1 µM.
`Cc1cc(NC(=O)CCC(=O)N(CC(=O)NC2CCCC2)c2ccc(Cl)cc2)no1` was tested, and the Potency was “inactive”.
For `COc1cc(Cl)c(C)cc1NC(=O)CSc1ncc(S(=O)(=O)c2ccc(C(C)(C)C)cc2)c(=O)[nH]1`, the Potency was inconclusive: 10.7 µM [inhibitor, partial curve].
`COC(CNC(=O)Cn1nc(Cc2ccncc2)c2ccccc2c1=O)OC` was tested, and the Potency was “inactive”.
For `CC(=O)C(C(C)=O)c1c(Cl)c(O)c(O)c2c(C(=O)c3ccccc3)coc12`, the Potency was inconclusive: 30.1 µM [inhibitor, single point].
With `CCOc1ccc(CC2S/C(=N/N=C/c3ccco3)NC2=O)cc1` (configuration not stated) the Potency was inconclusive: 3.38 µM [inhibitor, partial curve, poor fit].
For `CC1CN=C(NC(=O)c2cccc([N+](=O)[O-])c2)S1` (configuration not stated), the Potency was active: 2.39 µM.
For `Cc1cccc(NS(=O)(=O)c2csc(C(N)=O)c2)c1C`, the Potency was “inactive”.
`CCN(CC)c1ccc(/C=N/NC(=O)Cc2ccc(OC)c(OC)c2)cc1` was tested, and the Potency was inconclusive: 23.9 µM [inhibitor, partial curve].
For `COc1ccc(NC(=O)c2cccc(N3C(=O)C4C5C=CC(C5)C4C3=O)c2)c(OC)c1` (configuration not stated), the Potency was inconclusive: 37.9 µM [inhibitor, partial curve, poor fit].
With `COc1ccc(NCc2cc3cc4c(cc3n(CC(=O)Nc3ccc(C)cc3)c2=O)OCO4)cc1` the Potency was “inactive”.
For `O=C(Oc1ccc(C(=S)N2CCCCC2)cc1)c1ccccc1`, the Potency was inconclusive: 30.1 µM [inhibitor, single point].
In the case of `CC(=O)c1c(C)n(-c2ccccc2Br)c2ccc(O)cc12`, the Potency is reported as “inactive”.
In the case of `CC(=O)Oc1ccc(C(=O)Nc2cc(NC(=O)c3ccc(OC(C)=O)cc3)cc(C(=O)NC(C)(C)C)c2)cc1`, the Potency is reported as inconclusive: 19 µM [inhibitor, partial curve, poor fit].
For `Fc1ccc(-c2nnc3sc(C4COc5ccccc5O4)nn23)cc1` (configuration not stated), the Potency was inconclusive: 30.1 µM [inhibitor, partial curve, poor fit].
In the case of `Cc1ccc2sc(-c3ccc(NC(=O)CCN4C(=O)c5ccccc5C4=O)cc3)nc2c1`, the Potency is reported as active: 10.7 µM.
With `CCOC(=O)c1ccc(NS(=O)(=O)c2ccc(Br)s2)cc1` the Potency was inconclusive: 15.1 µM [inhibitor, partial curve].
In the case of `Cc1csc(NC(=O)CSc2ccc(-c3ccccc3)nn2)n1`, the Potency is reported as inconclusive: 30.1 µM [inhibitor, single point].
In the case of `CCS(=O)(=O)Nc1ccc2c(c1)N(C(C)=O)c1ccccc1CC2`, the Potency is reported as “inactive”.
In the case of `CCOc1ccc(S(=O)(=O)N2CCN(c3c(C)cccc3C)CC2)c2ccccc12`, the Potency is reported as “inactive”.
For `CCOC(=O)c1cnc2cc(-c3ccc(Cl)cc3)nn2c1N`, the Potency was inconclusive: 0.953 µM [inhibitor, partial curve, poor fit].
`CN(C)/C=C1\Oc2ccc3ccccc3c2C1=O` was tested, and the Potency was active: 16.9 µM.
For `CS(=O)(=O)c1ccc2nc(NC(=O)C3=NN(c4ccccc4)C(=O)CC3)sc2c1`, the Potency was inconclusive: 23.9 µM [inhibitor, partial curve, poor fit].
For `CC1=CN2C(=N)/C(=C/c3ccc([N+](=O)[O-])o3)C(=O)N=C2S1`, the Potency was active: 13.5 µM.
`COC(=O)CNC(=O)C1(C)C=CCN1C(=O)c1ccccc1` (configuration not stated) was tested, and the Potency was active: 15.1 µM.
`CC(C)(C)c1cccc(OCCCSc2ncccn2)c1` was tested, and the Potency was inconclusive: 26.9 µM [inhibitor, single point].
In the case of `COC(=O)c1cccc(NC(=O)CSc2nc3cccnc3n2C)c1`, the Potency is reported as inconclusive: 37.9 µM [inhibitor, partial curve, poor fit].
With `CCOc1ccc(C(C(=O)NCC2CCCO2)N(C(=O)c2snc(C(N)=O)c2N)c2ccc3c(c2)OCCO3)cc1` (configuration not stated) the Potency was “inactive”.
For `COc1cccc(CNS(=O)(=O)c2c(C(=O)N3CCCCCC3)c(C)n(C)c2C)c1`, the Potency was “inactive”.
`CCn1cc(/C=C/C(=O)c2ccc(O)cc2)c(C)n1` was tested, and the Potency was active: 10.7 µM.
For `O=C(NCCc1csc(-c2cccc(F)c2)n1)c1cccs1`, the Potency was inconclusive: 37.9 µM [inhibitor, partial curve, poor fit].
`Cc1cccc(NC(=O)/C=C/c2ccc3c(c2)OCO3)n1` was tested, and the Potency was active: 0.849 µM.
For `O=C(Cc1ccccc1)Nc1sc2c(c1C(=O)Nc1ccc(Cl)cc1)CCCC2`, the Potency was inconclusive: 8.49 µM [inhibitor, partial curve, poor fit].
`Cc1ccc(-c2noc(CN3C(C)CCCC3C)n2)cc1` (configuration not stated) was tested, and the Potency was inconclusive: 23.9 µM [inhibitor, partial curve, poor fit].
With `COc1ccc(CN2CCN(c3nc4ccccc4s3)CC2)cc1` the Potency was inconclusive: 30.1 µM [inhibitor, single point].
For `CNC(=O)COC(=O)/C=C/c1nc2ccccc2s1`, the Potency was inconclusive: 30.1 µM [inhibitor, partial curve, poor fit].
With `Cc1cccc(OCc2nc(-c3cccnc3)no2)c1` the Potency was inconclusive: 26.9 µM [inhibitor, partial curve, poor fit].
For `O=C(O)CCCCCCCCCCCc1ccccc1`, the Potency was inconclusive: 23.9 µM [inhibitor, partial curve, poor fit].
In the case of `O=C(O)c1cc(-c2ccc(/C=N/N3C(=O)C4C5C=CC(C6CC56)C4C3=O)o2)ccc1Cl` (configuration not stated), the Potency is reported as inconclusive: 26.9 µM [inhibitor, single point].
In the case of `N#C/C(=C\Nc1ccc2c(c1)OCCO2)C(=O)NCc1ccco1`, the Potency is reported as inconclusive: 21.3 µM [inhibitor, single point].
In the case of `COc1cccc(-c2ccc(NC(=O)C3CCCN(Cc4cnc(N(C)C)s4)C3)cc2)c1` (configuration not stated), the Potency is reported as inconclusive: 21.3 µM [inhibitor, partial curve, poor fit].
`COc1ccc2[nH]c(C(=O)Nc3ccc(C)c(F)c3)cc2c1` was tested, and the Potency was inconclusive: 3.01 µM [inhibitor, full curve].
For `CC1(NC(=O)CCc2nc3ccccc3c(=O)[nH]2)CCS(=O)(=O)C1` (configuration not stated), the Potency was “inactive”.
For `Cc1cc2nc(-c3ccco3)cc(C(F)(F)F)n2n1`, the Potency was “inactive”.
With `CCCCC(=O)Nc1nnc(SCC(=O)Nc2ccc(OC)cc2)s1` the Potency was “inactive”.
In the case of `Cc1c(CNC(C)CCc2ccccc2)c(C(=O)O)c(C)n1Cc1ccc(F)cc1Cl` (configuration not stated), the Potency is reported as “inactive”.
With `COc1ccccc1OCCCOc1c(C)cc(C)cc1Br` the Potency was inconclusive: 26.9 µM [inhibitor, single point].
With `Cn1c(SCC(=O)c2cccs2)nnc1-c1ccco1` the Potency was inconclusive: 19 µM [inhibitor, partial curve].
For `COc1ccc(C(=O)Nc2ccccc2C(=O)NC(Cc2ccc(O)cc2)C(=O)NNC(=O)c2ccccc2Cl)cc1` (configuration not stated), the Potency was active: 13.5 µM.
For `COC(=O)c1sc(NC(=O)CSc2nnc(C(C)C)n2C)nc1C`, the Potency was “inactive”.
In the case of `CCOC(=O)c1c(N)sc(N)c1C(=O)OCC`, the Potency is reported as inconclusive: 37.9 µM [inhibitor, partial curve, poor fit].
`O=C(CN1C(=O)C2C3C=CC(C4CC34)C2C1=O)Nc1cnc2ccccc2c1` (configuration not stated) was tested, and the Potency was inconclusive: 37.9 µM [inhibitor, single point].
`CC1(C(=O)Nc2ccc3c(c2)OCO3)CC1(Cl)Cl` (configuration not stated) was tested, and the Potency was “inactive”.
`CCOC(=O)c1ccc(NC(=O)CC2SCCNC2=O)cc1` (configuration not stated) was tested, and the Potency was inconclusive: 23.9 µM [inhibitor, single point].
`CCC(C)(C)NS(=O)(=O)c1cc(CN2C(=O)c3cccnc3C2=O)ccc1OC` was tested, and the Potency was “inactive”.
With `Clc1ccc2c(N/N=C/c3cccnc3)ccnc2c1` the Potency was inconclusive: 12 µM [inhibitor, partial curve].
For `COc1cc(OC)cc(-n2nnc(-c3nc(-c4ccccc4Cl)no3)c2N)c1`, the Potency was inconclusive: 4.78 µM [inhibitor, full curve].
With `CCOc1ccccc1N1CCN(Cc2c(C)n(C)n(-c3ccccc3)c2=O)CC1` the Potency was “inactive”.
`CC(=O)Nc1ccc(S(=O)(=O)N2CCC(Oc3ccc(-n4cnnn4)cc3)CC2)cc1` was tested, and the Potency was “inactive”.
In the case of `CN(C)S(=O)(=O)c1cccc(NC(=O)CCc2nc3sc4c(c3c(=O)[nH]2)CCCC4)c1`, the Potency is reported as inconclusive: 30.1 µM [inhibitor, partial curve, poor fit].
In the case of `CSc1ccc(CNC(=O)c2ccccc2NC(=O)c2nsc3ccccc23)cc1`, the Potency is reported as inconclusive: 19 µM [inhibitor, single point].
For `Cc1cc(Cl)ccc1OCc1nc(-c2ccncc2)no1`, the Potency was active: 10.7 µM.
For `CCOC(=O)CNS(=O)(=O)c1cc(-c2nnc(Nc3ccc4c(c3)OCO4)c3ccccc23)ccc1C`, the Potency was inconclusive: 10.7 µM [inhibitor, partial curve].
For `Clc1ccc(-c2cn3nc4c(nc3n2)CCCC4)cc1`, the Potency was active: 0.239 µM.
With `Cc1ccc(C(=O)OCC(=O)NCCC2=CCCCC2)s1` the Potency was “inactive”.
With `Cn1cc(-c2nnc(-c3ccccc3)o2)c2ccccc21` the Potency was active: 0.675 µM.
For `COc1cccc(-n2cc(C(=O)NCc3cccc(Cl)c3)c3ccccc3c2=O)c1`, the Potency was inconclusive: 12 µM [inhibitor, partial curve].
`CC(C)(C)c1ccc(C(=O)NCC(=O)OCN2C(=O)c3ccccc3C2=O)cc1` was tested, and the Potency was inconclusive: 23.9 µM [inhibitor, single point].
